Our source for the binding signal values is publication PMC12136788.

The other results are listed elsewhere or left out.

To fix the notation:
B1: chr17:35273046:35273147:+|3pUTR|ENSG00000166750|unk|total|mutant (ssRNA)
RNA: GGGAGUUCUACAGUCCGACGAUCAUUCCUAAGAGCAGAAGACUGCAAAACCGUAAAUAUAUACCCAAAAGGGUCUAAUGGAUCCGUUUUUGGCAUAUCAGCACAUGAUAAUACUAUGAAGCCAUAAAAAAGAGAGAUCUCUAUCAACAGAGGAUUGAGCAUCA
B2: chr11:123627604:123627705:+|3pUTR|ENSG00000023171|unk|FALSE|unique (ssRNA)
RNA: GGGAGUUCUACAGUCCGACGAUCAUUUGGAUCUAUAACUGUACUUUGCCUGGCGCUGUGCGCAAGGUCAGAAAACUUACUGCUAGUACCUAGAAACACACAAGGCUGCCCAGCCAAAUCUUAAUGUAAAGUAGCUAGAGCCAUCAACAGAGGAUUGAGCAUCA
B3: chr16:23064695:23064796:-|3pUTR|ENSG00000103404|msi1|total|mutant (ssRNA)
RNA: GGGAGUUCUACAGUCCGACGAUCGUUUAUGGAGGGCCUUCUUUGAGCACAGAGGCAAAACUGAAAGCUUCAGGGAUUUGCUGCCGCUGAGGAGCCCUGGGAGCACAGCCCAUCAAGCAAGGGAUGUGAUGGUGUCCUAAAUGGCAACAGAGGAUUGAGCAUCA
B4: chr1:67003359:67003460:-|3pUTR|ENSG00000116704|msi1|FALSE|unique (ssRNA)
RNA: GGGAGUUCUACAGUCCGACGAUCACUCAAAAGCCGCAAAUCUGUAAAUUGGAUUAAGAACACCUGCCCUACCUACCCGGCAAUAGUGUGAAUCCAAAUGCUGCAAUGUGAGAUGAGGUACAAGUAAAGAGCUGUGUUUUGUAACAACAGAGGAUUGAGCAUCA
B5: chr13:99866285:99866388:+|CDS|ENSG00000125246|unk|FALSE|unique (ssRNA)
RNA: GGGAGUUCUACAGUCCGACGAUCUAUUCUCUACGCCCGGCAAAAGAUUGUUGUCAUAGCGAAAGCCUUUGGUCUCCAAGCCAUAGAUCUGGUGUACAUUGACUUUCGAGAUGGAGCUGGGCUGCUUAGACAGUCACGAGAAGGCAACAGAGGAUUGAGCAUCA
B6: chr12:56416428:56416529:-|3pUTR|ENSG00000111602|msi1|total|mutant (ssRNA)
RNA: GGGAGUUCUACAGUCCGACGAUCAUGUUCUUACCCAUUCUUGGAAACGUCAGCUUUCUUGCUUCCUGUGCUUCCAGCCGAGGCCGGGCAAAGGUGAGAUUGAGAAAACCGCCAUUCAGCUCAGGAAGGCUUCUAAGUAAAGGACAACAGAGGAUUGAGCAUCA
B7: chr7:132784869:132785660:-|three_prime_utr|ENSG00000106554|control|control|control (ssRNA)
RNA: GGGAGUUCUACAGUCCGACGAUCCUUUCAGAAUGAGCAAAACACCAUCAACGUUAAUUCCAGAGAUGGAACAUUUUUUUUCCUAGUGAGAAAACAACCCAUUUGAAGAGAAGACCACUAAUGAGAAGACCACUAAAGAGAGACCAACAGAGGAUUGAGCAUCA
B8: ENSG00000198589:be:win_6401|CDS|ENSG00000198589|bound_else_gene|NA|bound_elsewhere_windowed (ssRNA)
RNA: GGGAGUUCUACAGUCCGACGAUCGUUAUCUUUUGCAAAAUACAGCCCUGGAGAUCUUUAUGGCAAACAGAGUUGCUGUGAUGUUCAACUUCCCAGACCCUGCAACAGUAAAGAAAGUGGUUAACUAUCUACCUCGUGUUGGCGCAACAGAGGAUUGAGCAUCA
B9: ENSG00000198589:be:win_7401|CDS|ENSG00000198589|bound_else_gene|NA|bound_elsewhere_windowed (ssRNA)
RNA: GGGAGUUCUACAGUCCGACGAUCUUCUCAACUACUCAUAGAGCCCCAUCCUCCCAGAGGUUCUGCCAUGCAAGUGAGUCCAUUGAUGUUCACAGACAAAGCCCAGCAGGAUGUUAUCAUGGUCCUCAAGUUUCCCUCCAACUCCAACAGAGGAUUGAGCAUCA
B10: chr17:15571490:15574098:-|three_prime_utr|ENSG00000251537|control|control|control (ssRNA)
RNA: GGGAGUUCUACAGUCCGACGAUCGGAAAAUGAAACAAAUGACAAUGUCAUUGCAUUGAUUUUGUUCUCAUUAAAUGGUAUUUUAGCUAUAAACAUUUUCCCCUUUGAUUUGCAAAAAAAAAUUAUAGAAAAUGUCUAUGUUGCCAACAGAGGAUUGAGCAUCA
B11: chr10:32033860:32033975:-|CDS|ENSG00000170759|unk|total|mutant (ssRNA)
RNA: GGGAGUUCUACAGUCCGACGAUCCACAGUGGAUAAAGAUAUUACUCUUACCAAUGAUAAACCAGCAACCGCAAUUGGAGUUACCGGAAAUUUUACUGAUGCUGAAAGAAGAAAGUGUGAAGAAGAAAUUGCUAAAUUAUACAACAACAGAGGAUUGAGCAUCA
B12: chr19:37127587:37127689:+|CDS|ENSG00000197050|unk|total|mutant (ssRNA)
RNA: GGGAGUUCUACAGUCCGACGAUCUAUGCAUGUAAGGAAUGUGGGAAGGCCUUUACUCAAAGCUCACAACUUAUUUUACAUCACCGAAUUCAUACUGGUGAAAAACCAUAUAAAUGUGAAGAAUGUGGGAAAGCCUUUAUUCGUCAACAGAGGAUUGAGCAUCA
B13: chr5:154417748:154417849:+|3pUTR|ENSG00000164574|msi1|total|mutant (ssRNA)
RNA: GGGAGUUCUACAGUCCGACGAUCCAGCACCAGCUUUACAGGGCAGUGUUUCAGAUGGCCCUGAGCCCACGGAAAAGGCCAGGCCGACCUCCAAACCCGAAAUGCUGGCUGAUUUGCCCUGAUCCAUGCUUCCAUUUCCCUGUCCAACAGAGGAUUGAGCAUCA
B14: chr9:76611375:76614569:-|three_prime_utr|ENSG00000106772|control|control|control (ssRNA)
RNA: GGGAGUUCUACAGUCCGACGAUCAUGUUACCUUUUUCCACUUUGCACUACCUGGUGCCAUUCUAAAUUUCUAAGGGGAAAAAUAGAAAGUUUGUUUACUCUUAAGAUAUUUUAUGAAAUUGUGUGUACUUUCCUAUUUUGCCACAACAGAGGAUUGAGCAUCA

The experiment has as its target MSI1 full-length (mouse, UniProt Q61474 1-362). In words: nsRBNS (natural sequence RNA bind-n-seq); RBNS binding buffer (assumed for nsRBNS): 25 mM Tris pH 7.5, 150 mM KCl, 3 mM MgCl2, 0.01% Triton X-100, 500 ug/ml BSA, 20 U/ml SUPERase-In, 4 C; UNK is unkempt and MSI1 is Musashi-1; names of the RNAs are library labels; protein concentration not given here; high values mean tight binding.
UniProt Q61474, sequence (Q61474 whole entry): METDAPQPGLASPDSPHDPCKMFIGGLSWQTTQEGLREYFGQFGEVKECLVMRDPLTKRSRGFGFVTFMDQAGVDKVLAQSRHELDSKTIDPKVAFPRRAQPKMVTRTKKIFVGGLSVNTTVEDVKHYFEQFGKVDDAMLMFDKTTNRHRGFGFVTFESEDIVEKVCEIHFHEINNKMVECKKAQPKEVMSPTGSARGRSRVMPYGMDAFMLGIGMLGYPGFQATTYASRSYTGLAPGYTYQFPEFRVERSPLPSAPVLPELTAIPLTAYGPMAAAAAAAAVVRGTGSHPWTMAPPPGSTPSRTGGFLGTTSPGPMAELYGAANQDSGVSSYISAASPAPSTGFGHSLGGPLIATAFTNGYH
For B1, the binding signal was found to be 0.361 enrichment R.
As to B2, the binding signal was 7.21 enrichment R.
B3 returned a binding signal of 0.521 enrichment R.
As to B4, the binding signal was 0.702 enrichment R.
The molecule B5 showed a binding signal of 0.39 enrichment R.
Turning to B6, the binding signal was found to be 0.362 enrichment R.
The value for B7 was 0.397 enrichment R; that for B8 was 0.424 enrichment R; that for B9 was 0.471 enrichment R.
Turning to B10, the binding signal came to 0.478 enrichment R.
The value for B11 was 0.675 enrichment R.
In turn, B12 returned a binding signal of 0.278 enrichment R.
B13: the binding signal is 0.437 enrichment R.
As for B14, the binding signal worked out at 1.45 enrichment R.
